Source: PubChem BioAssay AID624202 (National Center for Advancing Translational Sciences (NCATS), 2012)
The campaign covered roughly 380,000 compounds. About 4,000 (1.1%) were called active. Inconclusive results, whose numbers are uncertain, are shown with a selection of clear calls. Calls come from the whole dose curve; as a rule, active = well fitted activation curve with a large enough effect; inconclusive = small, poorly fitted or top-dose-only effect; inactive = no such curve, though single readings can be large or run the other way. Where the call is inconclusive, the potency comes from a doubtful curve fit.

Test: qHTS Assay to Identify Small Molecule Activators of BRCA1 Expression; note: nearly all actives have a fitted effect of over 80% in size
Details: MCF7-BRCA1-FFLuc reporter, luminescence, 48 h; activation: at 46.1 µM (top of the series), scaled: vehicle 0%, 10 µM genistein 100% unless noted
Procedure, shortened: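 Quantitative HTS in MCF7 cells stably reporting BRCA1 expression via firefly luciferase. Compound treatment lasts 48 h at 37 °C in phenol-red free MEM. Activation is expressed relative to genistein at 10 microM and DMSO.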
Potency is the fitted concentration of half-maximal effect; tags give direction and shape of the fitted curve.

Row | Compound | Potency | activation
1 | O=Cc1cccc(OC(=O)/C=C/c2ccco2)c1 | inconclusive: 20 µM [activator, partial curve, poor fit] | 
2 | Cc1ccc(O)c(NC(=S)NC(=O)C(C)C)c1 | inconclusive: 35.5 µM [activator, single point] | 
3 | COc1ccc(C=C2CCC3C(=O)CCCC3(C)C2=O)cc1 (centres undefined) | inconclusive: 25.1 µM [activator, single point] | 
4 | CCOC(=O)N1CCN(Cc2c(F)cccc2F)CC1 |  | inactive: 9.13%
5 | Cc1ccc2nc3ccc(N4CCN(C)CC4)nn3c(=O)c2c1 | inconclusive: 2.51 µM [activator, full curve, poor fit] | 
6 | CC(=O)c1sc(NC(=O)c2ccco2)nc1-c1ccccc1 | inconclusive: 3.55 µM [activator, partial curve, poor fit] | 
7 | COc1cccc(NC(=O)c2sc3nc4n(c(=O)c3c2C)CCC4)c1 | active: 10 µM | 
8 | CCn1c(C)[n+](CC(O)COCC2CC=CCC2)c2ccccc21 (centres undefined) |  | inactive: -44.4%
9 | CC(C)CC1(C)NC(=O)N(CC(=O)Nc2ccc3c(c2)CCC3)C1=O (centres undefined) |  | inactive: -75.2%
10 | CC(C)Oc1ccc2c(=O)c(-c3ccccc3)coc2c1 | inconclusive: 0.631 µM [activator, full curve, poor fit] | 
11 | COC(=O)c1ccc(NC(=O)c2ccc(OC(C)=O)c(OC)c2)cc1 | inconclusive: 2.51 µM [activator, partial curve, poor fit] | 
12 | CC1CCc2sc(C(=O)NC3CCCCC3)cc2C1 (centres undefined) | active: 11.2 µM | 
13 | Cn1c(SCC(=O)Nc2ccc3cn[nH]c3c2)nnc1-c1cccs1 | inconclusive: 31.6 µM [activator, single point] | 
14 | Cc1ccccc1-n1c(C)cc(/C=C2\NC(=O)NC2=O)c1C | active: 10 µM | 
15 | CC(C)CNC(=O)C1(C)CCCN1Cc1ccccc1OC(F)F (centres undefined) |  | inactive: 2.26%
16 | Nc1cc2c(cc1[N+](=O)[O-])-c1ccccc1C2=NO | inconclusive: 7.94 µM [activator, partial curve, poor fit] | 
17 | COc1ccc(/C=C/C(=O)NC2CC3CCC2C3)cc1 (centres undefined) | inconclusive: 20 µM [activator, partial curve, poor fit] | 
18 | COc1ccc(C2Nc3ccccc3C(=O)N2c2ccc(Cl)cc2)cc1Cn1cc([N+](=O)[O-])cn1 (centres undefined) | inconclusive: 1.78 µM [activator, full curve, poor fit] | 
19 | O=C(O)c1ccc(-c2nc(-c3ccccc3Cl)cs2)cc1 | inconclusive: 10 µM [activator, partial curve, poor fit] | 
20 | COc1ccccc1N1CCN(CC(=O)NCC2CCCO2)CC1 (centres undefined) |  | inactive: 17.1%
21 | CC(NCc1ccc(S(N)(=O)=O)cc1)C(=O)Nc1ccc([N+](=O)[O-])cc1Cl (centres undefined) |  | inactive: -17.5%
22 | CC(C)CNC(=O)/C=C/C=C/c1ccc2c(c1)OCO2 | inconclusive: 17.8 µM [activator, single point] | 
23 | O=C(CCCN1C(=O)/C(=C\c2cccs2)SC1=S)Nc1ccc(O)cc1C(=O)O |  | inactive: 33.1%
24 | CS(=O)(=O)c1ccc2nc(NC(=O)c3ccccc3Br)sc2c1 | inconclusive: 11.2 µM [activator, partial curve, poor fit] | 
25 | O=C(c1ccc([N+](=O)[O-])cc1)N(Cc1cccs1)C1CCS(=O)(=O)C1 (centres undefined) |  | inactive: -12.2%

Row | Compound | Potency | activation
26 | O=C(NC1CCCCC1)c1ccc(-c2cccc([N+](=O)[O-])c2)o1 | inconclusive: 0.631 µM [activator, full curve, poor fit] | 
27 | CC(NNC(=S)N1CCN(c2ccccn2)CC1)c1nccc2ccccc12 (centres undefined) |  | inconclusive: -92.3% [activator]
28 | COc1ccc(C(=O)NCCNc2ccccc2[N+](=O)[O-])cc1 | inconclusive: 1.12 µM [activator, full curve, poor fit] | 
29 | Nc1ccc(C#Cc2ccc3oc4ccccc4c(=O)c3c2)cc1 | inconclusive: 2.82 µM [activator, full curve, poor fit] | 
30 | CC1=NN(C(=O)Cc2ccc([N+](=O)[O-])cc2)C(O)(C(F)(F)C(F)(F)F)C1 (centres undefined) |  | inactive: -25.2%
31 | CC(=O)Nc1ccc2c(c1)ncn2-c1ccc(C)cc1 | inconclusive: 2.24 µM [activator, full curve, poor fit] | 
32 | Cn1cccc1-c1nc2ccccc2n1Cc1ccccc1 |  | inactive: -24.2%
33 | CCOC(=O)c1c(C)oc2c1c(CN1CCN(CCO)CC1)c(O)c1ccccc12 | inconclusive: 31.6 µM [activator, single point] | 
34 | COc1ccc(/C=C/c2cc(O)cc(OC3OC(CO)C(O)C(O)C3O)c2)cc1 (centres undefined) | inconclusive: 25.1 µM [activator, single point] | 
35 | O=C1c2ccccc2-c2c1cccc2C(=O)N1CCN(C(=O)c2ccco2)CC1 |  | inactive: 2.03%
36 | Cc1nc2cc(NC(=O)Nc3ccc(Br)cc3)ccc2o1 | inconclusive: 0.501 µM [activator, full curve, poor fit] | 
37 | Cc1c(O)ccc(/C=N/Nc2ncccc2[N+](=O)[O-])c1O | inconclusive: 1.58 µM [activator, partial curve, poor fit] | 
38 | CCOC(=O)/C(=C/C=C1\Sc2cc(OCC)c(OCC)cc2N1CC)C(C)=O |  | inactive: -1.6%
39 | Cc1cc(N=Nc2ccccc2)cc(C)c1NC(=O)C(F)(F)F | inconclusive: 2.24 µM [activator, full curve, poor fit] | 
40 | O=C(COC(=O)c1ccccc1Br)NC1CCCC1 | inconclusive: 15.8 µM [activator, single point] | 
41 | Cc1cc(C)n2c(SCC(=O)N(CCC#N)c3ccc4c(c3)OCCO4)nnc2n1 |  | inactive: -7.87%
42 | CCc1ccccc1NC(=O)c1ccc(=O)n(Cc2ccc(F)cc2)c1 |  | inactive: -38.3%
43 | Cc1cc(C(=O)COC(=O)c2n[nH]c3ccccc23)c(C)n1C | inconclusive: 0.631 µM [activator, full curve, poor fit] | 
44 | CC(C)=CC(=O)Nc1ccc(Cl)cc1 | active: 3.16 µM | 
45 | O=C(Nc1cccc(Cl)c1)c1ccc(NCCCN2CCOCC2)c([N+](=O)[O-])c1 |  | inactive: -31.7%
46 | CCc1cc2c(=O)n(CC(C)C)cnc2s1 | active: 11.2 µM | 
47 | CN(C)CCN(C(=O)c1cc(Cl)sc1Cl)c1nc2ccc(F)cc2s1 |  | inactive: 57.4%
48 | CCCCN1CN=C(Nc2nc3ccccc3o2)NC1 | inconclusive: 12.6 µM [activator, partial curve, poor fit] | 
49 | Cc1csc(N=Nc2ccc(N(C)C)cc2)[n+]1[O-] |  | inconclusive: -78% [activator]
50 | Brc1ccccc1-n1nnc(-c2cccnc2)n1 | inconclusive: 12.6 µM [activator, partial curve, poor fit] | 

Row | Compound | Potency | activation
51 | COc1ccc(NC(=O)CCNS(=O)(=O)c2ccc3c(c2)CCN3C(=O)C2CC2)cc1Cl |  | inactive: -0.89%
52 | COc1cc(-c2nnc3sc(-c4ccco4)nn23)cc(OC)c1OC |  | inactive: -20.1%
53 | C/C(=N\NC(=O)c1ccccn1)C12CC3CC(CC(C3)C1)C2 | inconclusive: 15.8 µM [activator, single point] | 
54 | O=C(NCCN1CCC(n2c(=O)[nH]c3ccccc32)CC1)c1ccncc1 |  | inactive: -20.2%
55 | CCn1cc(C2Nc3ccccc3C(=O)N2O)c(C)n1 (centres undefined) | inconclusive: 28.2 µM [activator, single point] | 
56 | CC(=O)Nc1cccc(-c2cnc3ccccc3n2)c1 | active: 3.98 µM | 
57 | CS(=O)(=O)c1ccccc1C(=O)Nc1ccc(-c2nc3ccccc3o2)cc1 | inconclusive: 7.08 µM [activator, partial curve, poor fit] | 
58 | Cc1ccc(-c2nnn(CCC(=O)NC(C)(C)C)n2)cc1 | active: 14.1 µM | 
59 | O=C(OCCn1c(=S)sc2ccccc21)c1ccccc1 | inconclusive: 15.8 µM [activator, partial curve, poor fit] | 
60 | CC1CCN(S(=O)(=O)c2ccc3c(c2)N(CC(=O)NCc2cccnc2)C(=O)CS3)CC1 |  | inactive: 47.4%
61 | N/C(=N\OC(=O)Cc1ccc([N+](=O)[O-])cc1)c1ccccn1 | inconclusive: 1 µM [activator, full curve, poor fit] | 
62 | CCOc1ccc(OCC(=O)Nc2ccccc2N2CCCC2)cc1 |  | inactive: -81.4%
63 | O=C(Nc1ccc(NC(=O)c2ccco2)cc1)c1ccco1 | active: 10 µM | 
64 | COc1ccc(-n2nnc(C(=O)Nc3ccccc3F)c2N)cc1 | inconclusive: 0.562 µM [activator, full curve, poor fit] | 
65 | CC(=O)N(CC1CCCO1)c1nnc(-c2ccccn2)s1 (centres undefined) | inconclusive: 35.5 µM [activator, single point] | 
66 | COc1cccc(CN(C)S(=O)(=O)c2c(C)noc2C)c1OC |  | inactive: 8.83%
67 | COc1ccc(-c2cc(-c3ccccc3)nc3c2COc2ccccc2-3)cc1 |  | inconclusive: 116% [activator]
68 | CN(CC(=O)O/N=C(\N)c1cccc([N+](=O)[O-])c1)S(=O)(=O)c1ccccc1 |  | inactive: 0.694%
69 | Oc1ccc(Cl)cc1C=NN1CCCCCC1 | inconclusive: 15.8 µM [activator, single point] | 
70 | C/C(=N\Nc1cccc2cccnc12)c1ccc(C)cc1 | inconclusive: 35.5 µM [activator, single point] | 
71 | COc1ccccc1-c1cc(C(=O)NCCc2ccccc2)no1 |  | inactive: 50.1%
72 | COc1ccc(CN=C2NN=C(c3ccccc3)CS2)cc1 | inconclusive: 7.08 µM [activator, partial curve, poor fit] | 
73 | COC(=O)Cn1ncc(N(C)Cc2ccccc2)c(Cl)c1=O | inconclusive: 5.01 µM [activator, partial curve, poor fit] | 
74 | CC(C)(C)c1csc(NC(=O)C2=COCCO2)n1 | inconclusive: 2.82 µM [activator, full curve, poor fit] | 
